Measured values taken from the supplement of paper PMC3334620.
Whole data set: some 33,000 sequences, median “E-score (-0.5 to 0.5)” near -0.043, cut for the highest 2% near 0.37. This is one part of the list.

Each sequence was assayed against T1, Upc2 (UniProt Q12151) (assay: PBM E-score (8-mer binding enrichment) (E-score (-0.5 to 0.5)); higher = stronger / more preferred TF binding; most listed sequences are background and not binding sites). Conditions: protein concentration: 200 nM; construct: GST-full length.
T1 sequence: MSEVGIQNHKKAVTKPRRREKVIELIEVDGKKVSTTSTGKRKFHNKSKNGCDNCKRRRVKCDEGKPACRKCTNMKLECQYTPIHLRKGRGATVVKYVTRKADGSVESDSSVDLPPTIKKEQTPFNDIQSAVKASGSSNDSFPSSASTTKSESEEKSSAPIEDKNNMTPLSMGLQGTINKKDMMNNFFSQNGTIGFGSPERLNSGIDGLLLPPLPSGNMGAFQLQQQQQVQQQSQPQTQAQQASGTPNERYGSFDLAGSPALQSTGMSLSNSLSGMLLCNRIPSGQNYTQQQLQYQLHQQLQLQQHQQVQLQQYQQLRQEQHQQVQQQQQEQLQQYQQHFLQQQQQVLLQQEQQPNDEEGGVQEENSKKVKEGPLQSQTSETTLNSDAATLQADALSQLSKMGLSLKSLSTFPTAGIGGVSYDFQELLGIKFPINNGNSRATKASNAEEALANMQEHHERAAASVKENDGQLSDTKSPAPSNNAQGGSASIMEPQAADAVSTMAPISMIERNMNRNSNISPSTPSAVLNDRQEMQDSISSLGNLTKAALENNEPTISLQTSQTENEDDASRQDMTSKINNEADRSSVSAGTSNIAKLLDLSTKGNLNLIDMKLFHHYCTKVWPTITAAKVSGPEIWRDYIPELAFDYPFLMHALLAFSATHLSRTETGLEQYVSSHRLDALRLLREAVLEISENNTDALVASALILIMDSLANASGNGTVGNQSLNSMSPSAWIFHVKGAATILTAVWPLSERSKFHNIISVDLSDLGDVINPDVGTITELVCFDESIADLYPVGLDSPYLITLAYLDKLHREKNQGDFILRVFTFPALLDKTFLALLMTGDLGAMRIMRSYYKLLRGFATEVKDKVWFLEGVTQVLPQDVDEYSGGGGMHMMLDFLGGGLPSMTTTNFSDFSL
Summary of the method: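 PURExpress in vitro transcription/translation supplied GST-tagged yeast transcription factors, either full-length or DNA-binding domain. Applied at about 100-200 nM to universal all-10-mer Agilent arrays double-stranded by primer extension, the bound protein was detected with fluorescent anti-GST. E-scores, modified Wilcoxon-Mann-Whitney statistics, were given by the Universal PBM Analysis Suite to ungapped eight-base words pooled with their reverse complements after masliner normalisation.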

Sequence | PBM E-score
ATCTACTC | -0.0186
GCTATGCA | -0.166
ATCGGAGG | -0.133
ACATGCGG | -0.00764
AGTGGAGG | -0.13
CCCATTTA | 0.0418
CACAAGCC | -0.0933
CGACGATC | 0.205
AACAGTGT | -0.0329
CGCGACAA | 0.107
AGCCACAT | 0.0577
TAATATTA | 0.188
CCTCTCGC | 0.0887
ATCGCAAT | 0.0771
CCACATAA | 0.00895
CGGCGCAA | -0.0304
ACGTCACT | -0.0547
CTCACTTC | -0.0766
GATTTGGC | 0.0042
ATGCCCGA | 0.0914
AGCATAGA | -0.165
ATGGGGTC | -0.17

Sequence | PBM E-score
TGAGGTAA | -0.236
CGTAAACC | 0.364
CGTCAAGA | -0.109
TAGACCTA | 0.121
CTTCTTTC | -0.188
GCGCGAGA | 0.0691
GCTTAAGC | 0.0508
CTCGGATA | 0.3
GATACACC | 0.0438
AGGCCGGA | -0.0381
ACGAACGT | 0.32
CATAGACG | -0.143
GAAGTCTC | 0.0262
CGGAAACA | 0.0351
CGAGGGCC | 0.194
AAAGGAGG | -0.129
CAATAATC | 0.00408
ATGATCAT | -0.141
CAGATACG | 0.375
AAACGCCT | 0.12
AGATATGA | -0.0601
CCACGTCA | -0.196

Sequence | PBM E-score
GATCGTGA | -0.103
AGATGTTA | -0.0817
TGAATTCA | 0.0467
AAAAAGTT | -0.0419
GGACATCA | -0.0651
CGAGTGAA | 0.146
GAAATGTA | 0.00471
CGTCTGCA | -0.00627
CGCTCAGC | 0.153
AAATCTCA | 0.168
TGACCGCA | -0.127
CAGAATAC | 0.113
CTCGAAGA | -0.23
ATCTAGAC | -0.0429
GTCTGAGA | -0.098
GACTTCCA | -0.202
CATCTCAA | -0.13
AGCAAATC | -0.0847
GGAGAGGA | -0.284
AGGGTCAC | -0.22
CCAATCCG | -0.0814
GAGGGTTA | -0.0346

Sequence | PBM E-score
TAAATGTA | 0.0369
CCCCGCAC | 7e-05
AATGTAAC | -0.0595
CATTCTCG | 0.0534
CCATGGGC | -0.368
GCCGACCC | -0.256
ACTGTTGC | -0.0837
GAGTCAAA | -0.229
AGCTAAGA | -0.0858
ACGTCATC | 0.0767
CGCCCATA | 0.102
TAGTCAGA | -0.16
GCCGTGTA | 0.231
ATTGATAC | 0.173
CACATAAA | 0.192
GGTGTGAC | -0.143
CAACACTC | -0.0828
GAGGGTCC | -0.162
AACTCATG | -0.0272
AATTGCAG | -0.0277
